Read-outs that look alike come from different tables or passages of the source. No constants are given. Whether binding was seen depends on the method and setting. Some entries that bind do so weakly or less than the wild type. For part of these data: Tags and fused reporters may be left off the sequences shown.
Tests used:
[1] = target: T1, ALK7-Fc (human) (UniProt Q8NER5); assay: SPR; Cripto-1 and Nodal-Cripto-1 complexes tested on ALK4 and ALK7, purified human proteins (S1 Fig.; manuscript in preparation); both purified
T1 sequence: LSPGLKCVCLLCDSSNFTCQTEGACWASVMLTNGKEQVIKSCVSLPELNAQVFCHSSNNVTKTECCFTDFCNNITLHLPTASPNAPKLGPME

Amino acid sequences for entries named in this document (tags omitted). Residues count along the entry.
UniProt P0CG37, residues 26-158: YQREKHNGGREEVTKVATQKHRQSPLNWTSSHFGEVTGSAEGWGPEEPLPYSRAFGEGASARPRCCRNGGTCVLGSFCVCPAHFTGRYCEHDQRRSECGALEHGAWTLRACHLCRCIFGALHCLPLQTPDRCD
UniProt P13385, residues 31-151: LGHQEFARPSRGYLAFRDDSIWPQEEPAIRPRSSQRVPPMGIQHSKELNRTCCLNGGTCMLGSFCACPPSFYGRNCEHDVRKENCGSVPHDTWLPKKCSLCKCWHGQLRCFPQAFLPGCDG
UniProt P08476, residues 311-426: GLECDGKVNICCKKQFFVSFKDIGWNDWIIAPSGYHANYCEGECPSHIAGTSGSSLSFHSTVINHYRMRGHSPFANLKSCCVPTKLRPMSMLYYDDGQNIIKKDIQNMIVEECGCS
UniProt O14793, residues 267-375: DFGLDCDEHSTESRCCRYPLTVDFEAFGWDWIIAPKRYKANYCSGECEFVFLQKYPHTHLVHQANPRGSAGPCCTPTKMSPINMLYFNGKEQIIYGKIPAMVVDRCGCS

[2] = target: T2, human ALK4-hIgg-Fc (human) (UniProt P36896); assay: as above
T2 sequence: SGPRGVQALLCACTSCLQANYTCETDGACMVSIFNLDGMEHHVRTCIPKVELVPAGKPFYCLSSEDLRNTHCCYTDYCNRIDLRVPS

[3] = target: T2, human ALK4-hIgg-Fc (human); assay: SPR; ALK4-Fc and rat ALK7-Fc immobilized on an SPR sensor chip (captured by anti-human IgG (Fc) antibody, CM5); 80 nM Fc free Cripto-1 injected; 25°C; HBS-EPS (0.01 M HEPES, 0.5 M NaCl, 3 mM EDTA, 0.005% Tween 20, pH 7.4); both purified
[4] = target: T3, rat ALK7-Fc (RnD systems) (rat) (UniProt P70539); assay: as above
T3 sequence: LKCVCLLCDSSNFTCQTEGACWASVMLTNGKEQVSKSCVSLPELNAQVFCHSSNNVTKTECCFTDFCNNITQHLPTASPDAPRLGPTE

[5] = target: T4, Human Cerberus-hIgg-Fc (human, UniProt O95813 18-267); assay: SPR; Cerberus-Fc immobilised; different TGFß family ligands injected at 80 nM, 40 ul/min; both purified
T4 construct: signal peptide in the construct; also called Cerberus-Fc; full-length Cerberus-Fc; source: CHO cells, purified from conditioned medium (Protein A, SEC); not shown: Fc (human IgG1), C-terminal, kept
T4 sequence (looked up): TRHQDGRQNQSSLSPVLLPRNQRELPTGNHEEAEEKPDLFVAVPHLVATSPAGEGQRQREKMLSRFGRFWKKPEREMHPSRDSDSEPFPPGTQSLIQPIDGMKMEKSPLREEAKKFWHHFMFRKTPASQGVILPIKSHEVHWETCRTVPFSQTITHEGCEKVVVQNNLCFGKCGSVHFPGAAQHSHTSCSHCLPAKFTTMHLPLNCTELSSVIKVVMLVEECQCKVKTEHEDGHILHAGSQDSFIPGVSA

[6] = target: T1, ALK7-Fc (human); assay: SPR; equal amounts (by response units) of Cripto-1-Fc, Cryptic-Fc, ALK4-Fc and ALK7-Fc immobilised; single injection of 80 nM Nodal; both purified
[7] = target: T5, human Cryptic-hIgg-Fc (human, UniProt P0CG37 26-158); assay: as above
T5 construct: signal peptide in the construct; human Cryptic (1-158), joined to human IgG1 Fc by a 22 amino acid linker with a TEV site, a glycine/serine rich region and a FLAG-tag; Synthetic gene from GeneArt; also called Cryptic-Fc; source: CHO cells, purified from conditioned medium (Protein A, SEC)

[8] = target: T4, Human Cerberus-hIgg-Fc; assay: SPR; Cerberus-Fc immobilised; different TGFß family ligands injected at 80 nM, 40 ul/min; both purified; remark: listed apart in the source

Cripto-1-Fc (from UniProt P13385 31-151) (Fc fusion)
binding [1]: no binding
binding [2]: no binding

Fc free Cripto-1 (from UniProt P13385 31-151) (domain or fragment)
binding [3]: no binding (tested: 80 nM)
binding [4]: no binding (tested: 80 nM)

Recombinant Activin A (from UniProt P08476 311-426) (ligand)
binding [5]: no binding (tested: 80 nM)

Recombinant GDF-8 (from UniProt O14793 267-375) (ligand)
binding [5]: no binding (tested: 80 nM)

B1: recombinant human Nodal (ligand, UniProt Q96S42 238-347, looked up)
chain: HHLPDRSQLCRKVKFQVDFNLIGWGSWIIYPKQYNAYRCEGECPNPVGEEFHPTNHAYIQSLLKRYQPHRVPSTCCAPVKTKPLSMLYVDNGRVLLDHHKDMIVEECGCL
notes: Nodal, human, recombinant (RnD Systems); source: bought: RnD Systems
binding [6]: no binding (tested: 80 nM)
binding [7]: binds weakly

B2: Recombinant BMP-2 (ligand, UniProt P12643 283-396)
chain: QAKHKQRKRLKSSCKRHPLYVDFSDVGWNDWIVAPPGYHAFYCHGECPFPLADHLNSTNHAIVQTLVNSVNSKIPKACCVPTELSAISMLYLDENEKVVLKNYQDMVVEGCGCR
binding [8]: binds weakly

B3: Recombinant GDF-11 (ligand, human, UniProt O95390 299-407, looked up)
chain: NLGLDCDEHSSESRCCRYPLTVDFEAFGWDWIIAPKRYKANYCSGQCEYMFMQKYPHTHLVQQANPRGSAGPCCTPTKMSPINMLYFNDKQQIIYGKIPGMVVDRCGCS
notes: GDF-11, recombinant; source: bought: R&D Biosystems or Life Technologies
binding [8]: binds weakly

B4: Recombinant BMP-4 (ligand, UniProt P12644 293-408)
chain: SPKHHSQRARKKNKNCRRHSLYVDFSDVGWNDWIVAPPGYQAFYCHGDCPFPLADHLNSTNHAIVQTLVNSVNSSIPKACCVPTELSAISMLYLDEYDKVVLKNYQEMVVEGCGCR
binding [8]: no binding (tested: 80 nM)

B5: Recombinant BMP-9 (ligand, UniProt Q9UK05 320-429)
chain: SAGAGSHCQKTSLRVNFEDIGWDSWIIAPKEYEAYECKGGCFFPLADDVTPTKHAIVQTLVHLKFPTKVGKACCVPTKLSPISVLYKDDMGVPTLKYHYEGMSVAECGCR
binding [8]: no binding (tested: 80 nM)
